Experimental data taken from US20170119790A1, “Agents, Uses and Methods” (CYTOGUIDE A/S, priority 2009, published 2017).
Substitutions are numbered along the chain they refer to. Numbers in names are those of the source.

What was measured:
CD163 [1] = target: T1, CD163 (Homo sapiens, UniProt Q86VB7); experiment: Surface plasmon resonance (Biacore) analysis of mAb binding to immobilized CD163; conditions: KN2/NRY compared with Mac2-158, 5 μg/ml, FIG. 19
Protocol: SPR analysis of the binding of mAbs to CD163 was carried out on a Biacore 2000 instrument (Biacore, Uppsala, Sweden). The Biacore sensor chips (type CM5) were activated with a 1:1 mixture of 0.2 M N-ethyl-N′-(3-dimethylaminopropyl) carbodiimide and 0.05 M N-hydroxysuccimide in water. Purified recombinant CD163 were immobilized in 10 mM sodium acetate, pH 4.0, and the remaining binding sites were blocked with 1 M ethanolamine, pH 8.5. The SPR signal generated from immobilized recombinant CD163 proteins corresponded to 40-70 fmol of protein/mm^2. Sensorgrams were generated using mAb concentrations ranging from 5-100 nM. The flow cells were regenerated with 1.6 M glycine-HCl, pH 3. The running buffer used for the experiment was either CaHBS 10 mM Hepes, 150 mM NaCl, 3.0 mM CaCl2, 1.0 mM EGTA, and 0.005% Tween 20, […], and 0.005% Tween 20, pH 7.4, mAb samples were dissolved in the same buffer as the running buffer used. All binding data were analyzed using the Biamolecular Interaction Analysis evaluation program version 3.1.
SPR analysis of the binding of mAbs to CD163 was carried out on a Biacore 2000 instrument (Biacore, Uppsala, Sweden). […] All binding data were analyzed using the Biamolecular Interaction Analysis evaluation program version 3.1.

CD163 [2] = target: T1, CD163; experiment: ELISA antibody reactivity comparison of humanised variants; assay type: binding; conditions: supernatant of transiently transfected CHO-S cells
Protocol: A nunc maxisorp plate was coated with the following (50 μl/well) over night at 4° C.: 4 μg/ml goat anti-human kappa chain antibody (AbD Serotec, Oxford, UK) and ˜4 μg/ml human CD163 (purified as described in 8). Buffer was carbonate buffer, pH 9.0. Each measurement was made in duplicate.
2) The plate was blocked with PBS containing 3% BSA for 1 h.
4) After blocking, the primary antibody was added (100 μl per well).
Undiluted supernatant from transfected cells added to the wells (100 μl/well)
2 fold dilution series were made on all samples and standards. Dilution in PBS containing 1% BSA.
6) Addition of secondary antibody (100 μl/well) • For anti-kappa/anti-gamma ELISA • 100 μl/well of goat anti human IgG gamma chain specific HRP 1:6000 in PBS containing 1% BSA. • For CD163 ELISA • 100 μl/well of goat anti human IgG (H&L) HRP 1:6000 in PBS containing 1% BSA. • For Mac2-158 goat anti-mouse HRP 1:2000 in PBS containing 1% BSA is added to the wells
8) The ELISA was developed by adding 75 μl of TMB substrate to each well. Incubation was performed for 3 min.
10) The plate was read in an ELISA reader at 450 nm.

[3] = target: T2, CD14 positive monocytes (CD163) (Homo sapiens, UniProt Q86VB7); experiment: Flow cytometric binding of KN2/NRY to human monocytes; assay type: cell-based; conditions: mononuclear cells isolated from buffycoat
T2 construct: Freshly drawn peripheral whole blood samples or PBMC; endogenous in cells; host or cells: human peripheral blood monocytes, blood dendritic cells, monocyte-derived macrophages (healthy donors, buffy coats)
Protocol: Outdated buffy coats were obtained from the blood bank at Skejby University Hospital. MNC were isolated with Accuspin System Histopaque®—1077 (Sigma-Aldrich Denmark A/S, Broendby, Denmark) according to the manufacturer's instructions and cultured in RMPI 1640, 10% fetal calf serum (FCS), penicillin/streptomycin (pen/strep) in Tissue culture flasks at 37° C. and 5% CO2. MNC were detached from the flasks by flushing.
The cell suspensions were washed in PBS pH 7.4 (0.1% NaN3) and the cell density adjusted to 3-5×10^6/ml. The cells were incubated at 0.3-0.5×10^6/ml with primary mAb (0.1-0.5 μg) in 100 μl PBS pH 7.4 (0.1% NaN3 and 2% FBS) for one hour at 4° C. Subsequently, the cells were washed in PBS (0.1% NaN3) and incubated with secondary Ab (anti-mouse IgG-FITC or anti-human IgG-FITC (both AbD-Serotec Dusseldorf, Germany)) for 30 min at 4° C. The stained cells were washed twice in PBS pH 7.4 (0.1% NaN3 and 2% FBS) by centrifugation at 1200 rpm for 5 min, 4° C. before analysis on a FACSCalibur (BD Biosciences, New Jersey, USA). The data were further analyzed using the FlowJo7 software package (Tri Star, Origon, USA).

[4] = target: T3, human CD163 LKIHEK containing mutants (VKVQEE-->LKIHEK and double mutant) (Homo sapiens, UniProt Q86VB7, E71K/Q69H/V66L/V68I); experiment: Western blotting of human CD163 and knock out mutants; assay type: binding
T3 construct: a pcDNA5-FRT-humanCD163 plasmid harboring the full length human CD163 cDNA; expressed in transfected cells; host or cells: HEK 293, transient
Description: (§1) For the mutant generation the Site-directed Ligation Independent Mutagenesis (SLIM) method was used (1). Primers are listed in the primer table. The template for the generation of the two first mutants was a pcDNA5-FRT-humanCD163 plasmid harboring the full length human CD163 cDNA. The primers LKI FT, RT, F, and R were used to generate the mutant plasmid pcDNA5-FRT-humanCD163 (VKVQEE-->LKIHEK). The primers R60D FT, RT, F, and R were used to generate the mutant plasmid pcDNA5-FRT-humanCD163 (R60D). Generation of a double mutant was done by performing a SLIM reaction on pcDNA5-FRT-humanCD163 (VKVQEE-->LKIHEK) with the primers R60D FT, RT, F, and R.
(§2) Each cell pellet was added 1 ml lysis buffer (10 mM Tris pH 8, 140 mM NaCl, 15 mM MgSO4, 1% Triton X-100) and incubated for 15 min at 4 °C with rotation. After centrifugation for 30 min at 6000 rpm the supernatants were sterile filtered.
(§3) 90 μl of each of the supernatants were added 30 μl of 4×LDS sample buffer. 3×20 μl samples of each supernatant and 8 μl SeeBlue plus2 prestained marker were loaded on NuPage 4-12% Bis-Tris-Gels (Invitrogen, Taastrup, Denmark) and the SDS-PAGEs were run with MOPS running buffer according to instructions of the manufacturer (200 V constant for 50 min). Blotting to PVDF membranes (Invitrogen, Taastrup, Denmark) was done on an iBLOT device according to instructions of the manufacturer. […]

human CD163 R60D = target: T4, human CD163 R60D (Homo sapiens, UniProt Q86VB7, R112D); experiment: as above; assay type: binding
T4 construct: a pcDNA5-FRT-humanCD163 plasmid harboring the full length human CD163 cDNA; expressed in transfected cells; host or cells: HEK 293, transient
Description: as §1, §2, §3

human CD163 wt = target: T5, human CD163 wt (Homo sapiens, UniProt Q86VB7); experiment: as above; assay type: binding
T5 construct: a pcDNA5-FRT-humanCD163 plasmid harboring the full length human CD163 cDNA; expressed in transfected cells; host or cells: HEK 293, transient
Protocol: as §2
90 μl of each of the supernatants were added 30 μl of 4×LDS sample buffer. 3×20 μl samples of each supernatant and 8 μl SeeBlue plus2 prestained marker were loaded on NuPage 4-12% Bis-Tris-Gels (Invitrogen, Taastrup, Denmark) and the SDS-PAGEs were run with MOPS running buffer according to instructions of the manufacturer (200 V constant for 50 min). Blotting to PVDF membranes (Invitrogen, Taastrup, Denmark) was done on an iBLOT device according to instructions of the manufacturer. After blotting the membranes were washed briefly in 1×PBS 0.1% Tween and blocked for 30 min in 1×PBS 2% Tween at room temperature with shaking. After blocking the membranes were washed 3×5 min in 1×PBS 0.1% Tween and incubated 1 hour with: (1) 10 ml 1 μg/ml polyclonal rabbit anti-human CD163; (2) 10 ml 1 μg/ml Mac2-158; (3) 10 ml 1:500 KN2/NRY-HRP all diluted in 1×PBS 0.1% Tween. The membranes were washed with 3×5 min 1×PBS 0.1% Tween again and incubated with: (1) 10 ml Goat anti-rabbit-HRP 1:1000 (AbD Serotec, Oxford, UK); or (2) 10 ml Goat anti-mouse-HRP 1:1000 (Dako, Glostrup, Denmark) for 1 hour. […]

T1 sequence (Q86VB7 42-1156): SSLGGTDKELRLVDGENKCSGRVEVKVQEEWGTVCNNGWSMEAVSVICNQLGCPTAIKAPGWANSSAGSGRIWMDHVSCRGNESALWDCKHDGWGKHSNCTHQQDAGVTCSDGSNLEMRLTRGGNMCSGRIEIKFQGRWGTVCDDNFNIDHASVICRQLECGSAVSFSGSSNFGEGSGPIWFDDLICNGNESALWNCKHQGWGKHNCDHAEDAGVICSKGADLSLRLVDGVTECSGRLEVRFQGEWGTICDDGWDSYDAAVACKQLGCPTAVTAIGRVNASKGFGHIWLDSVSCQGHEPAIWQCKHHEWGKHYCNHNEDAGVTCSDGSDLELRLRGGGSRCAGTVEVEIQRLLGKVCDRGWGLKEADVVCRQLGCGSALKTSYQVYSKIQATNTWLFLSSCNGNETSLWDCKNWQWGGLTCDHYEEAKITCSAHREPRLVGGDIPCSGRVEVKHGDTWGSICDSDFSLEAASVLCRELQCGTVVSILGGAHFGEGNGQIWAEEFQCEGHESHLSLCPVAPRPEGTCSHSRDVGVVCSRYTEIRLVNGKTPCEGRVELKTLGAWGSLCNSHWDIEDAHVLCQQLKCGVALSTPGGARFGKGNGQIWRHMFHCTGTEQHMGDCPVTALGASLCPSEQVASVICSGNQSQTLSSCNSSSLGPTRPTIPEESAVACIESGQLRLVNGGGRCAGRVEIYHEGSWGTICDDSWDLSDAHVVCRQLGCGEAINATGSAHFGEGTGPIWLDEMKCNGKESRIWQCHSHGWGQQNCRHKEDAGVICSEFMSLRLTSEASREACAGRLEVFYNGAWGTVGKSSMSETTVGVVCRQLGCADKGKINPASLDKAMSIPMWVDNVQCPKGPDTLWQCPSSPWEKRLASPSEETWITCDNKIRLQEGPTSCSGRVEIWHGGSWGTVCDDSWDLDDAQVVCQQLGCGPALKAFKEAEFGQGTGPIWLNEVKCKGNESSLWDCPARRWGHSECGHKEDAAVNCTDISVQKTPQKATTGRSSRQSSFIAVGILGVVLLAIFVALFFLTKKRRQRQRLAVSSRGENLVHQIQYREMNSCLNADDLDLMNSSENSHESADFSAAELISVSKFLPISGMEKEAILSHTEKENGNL
T2 sequence (Q86VB7 42-1156): as above
T5 sequence (Q86VB7 42-1156): as above
T4 sequence (Q86VB7 42-1156 R112D): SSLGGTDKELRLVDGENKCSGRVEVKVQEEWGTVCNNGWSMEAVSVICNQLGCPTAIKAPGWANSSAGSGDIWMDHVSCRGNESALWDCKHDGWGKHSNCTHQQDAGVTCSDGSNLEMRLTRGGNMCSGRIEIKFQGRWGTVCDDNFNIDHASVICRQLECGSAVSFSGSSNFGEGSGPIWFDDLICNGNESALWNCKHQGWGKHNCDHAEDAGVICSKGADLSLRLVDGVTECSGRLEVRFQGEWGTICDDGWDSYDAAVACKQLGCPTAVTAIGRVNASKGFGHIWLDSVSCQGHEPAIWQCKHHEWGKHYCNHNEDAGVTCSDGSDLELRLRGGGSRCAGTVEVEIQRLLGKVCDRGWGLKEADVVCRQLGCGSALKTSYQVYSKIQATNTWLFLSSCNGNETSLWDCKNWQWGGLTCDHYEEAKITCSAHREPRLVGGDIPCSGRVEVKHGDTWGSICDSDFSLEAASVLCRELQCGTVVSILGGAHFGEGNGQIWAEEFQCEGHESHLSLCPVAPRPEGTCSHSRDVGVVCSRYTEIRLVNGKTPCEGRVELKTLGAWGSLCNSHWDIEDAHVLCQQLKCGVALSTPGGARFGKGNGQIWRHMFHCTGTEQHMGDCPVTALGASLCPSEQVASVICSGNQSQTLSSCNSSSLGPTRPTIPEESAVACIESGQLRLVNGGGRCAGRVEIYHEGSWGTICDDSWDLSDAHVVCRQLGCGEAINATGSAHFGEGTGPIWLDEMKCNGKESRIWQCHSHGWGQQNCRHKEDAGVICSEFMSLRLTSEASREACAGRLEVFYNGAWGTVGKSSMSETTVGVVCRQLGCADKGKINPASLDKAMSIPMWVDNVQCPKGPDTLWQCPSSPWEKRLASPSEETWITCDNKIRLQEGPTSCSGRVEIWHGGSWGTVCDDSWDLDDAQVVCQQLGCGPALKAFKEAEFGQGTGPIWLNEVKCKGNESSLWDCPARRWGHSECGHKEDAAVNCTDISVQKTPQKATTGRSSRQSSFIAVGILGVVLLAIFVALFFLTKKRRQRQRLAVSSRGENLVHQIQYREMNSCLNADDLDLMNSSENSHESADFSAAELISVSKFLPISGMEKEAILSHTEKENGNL

B1: KN2/NRY: humanized IgG4 anti-CD163 antibody, heavy chain KN2 paired with light chain NRY (antibody)
heavy: QVQLQESGPGLVKPSETLSLTCTVSGYSITSDYAWNWIRQFPGNKLEWMGYITYSGSTYYNPSLKSRVTISVDTSKNQFSLKLSSVTAADTATYYCVSGTYYFDYWGQGTTLTVSSASTKGPSVFPLAPCSRSTSESTAALGCLVKDYFPEPVTVSWNSGALTSGVHTFPAVLQSSGLYSLSSVVTVPSSSLGTKTYTCNVDHKPSNTKVDKRV[left out - human IgG4 Fc]
light: DIVMTQSPSSLSASVGDRVTITCRASQSVSSDVAWFQQKPGKSPKPLIYYASNRYSGVPSRFSGSGSGTDFTLTISSLQAEDFAVYFCGQDYTSPRTFGGGTKLEIKRTVAAPSVFIFPPSDEQLKSGTASVVCLLNNFYPREAKVQWKVDNALQSGNSQESVTEQDSKDSTYSLSSTLTLSKADYEKHKVYACEVTHQGLSSPVTKSFNRGEC
B1 was tested, and the “affinity for human CD163 immobilized on a Biacore chip” value (CD163 [1]) was “Virtually similar affinities”, the “reactivity towards CD163 in ELISA” value (CD163 [2]) was “comparable reactivity” and the “peripheral monocytes showing co-binding of KN2/NRY and Mac2-158” value [3] was about 70%.

B2: KN1IN5: humanised heavy chain variant (additional S56I, Y58N) paired with light chain NRY (antibody)
heavy: B1 heavy with S19N, S57I, Y59N
light: B1 light
For B2, the “reactivity towards CD163 in ELISA” value (CD163 [2]) was “comparable reactivity”.

B3: VR1: humanised heavy chain variant (V71R intended, turned out V71E) paired with light chain NRY (antibody)
heavy: B1 heavy with S19N, S57I, Y59N, V72E
light: B1 light
In the case of B3, the “reactivity towards CD163 in ELISA” value (CD163 [2]) is reported as “comparable reactivity”.

B4: DQ2: humanised heavy chain variant Q1D paired with light chain NRY (antibody)
heavy: B1 heavy with Q1D, S19N, S57I, Y59N
light: B1 light
In the case of B4, the “reactivity towards CD163 in ELISA” value (CD163 [2]) is reported as “comparable reactivity”.

B5: KN2/NRY-HRP: KN2/NRY conjugated to HRP by periodate oxidation (conjugate)
heavy: B1 heavy
light: B1 light
With B5 the “binding in western blot” value [4] was “showed only binding to the human CD163 wt”, the “binding in western blot” value (human CD163 R60D) was “not be detected” and the “binding in western blot” value (human CD163 wt) was “binding”.
